Data on 65 compounds can be found in ChEMBL document CHEMBL4888484, “Replenishing the malaria drug discovery pipeline: Screening and hit evaluation of the MMV Hit Generation Library 1 (HGL1) against asexual blood stage Plasmodium falciparum ,using a nano luciferase reporter read-out” (2022).

The subject of this test is Plasmodium falciparum. Put plainly: Confirmatory screen in NF54 pLDH assay, in single point, at 2uM, 72h. Type of test: functional, Erythrocyte. The following applies: timepoint 72 hour.

“And” between values parts separate entries of the source, which are not always exact repeats. Equal entries are not always repeated. Among all 4,800 compounds or so, about 410 (8.5%) showed an effect of 50% or more. Some of the results follow.

For the compound `Cc1c2c(C(F)(F)F)cc(=O)n(CCC(=O)Nc3ccc4c(c3)OCCO4)c2nn1C`, the “% Inhibition” value is recorded as 8%.

Regarding `Cc1c(S(=O)(=O)N2CCC(C)(C(=O)NCc3ccc(F)cc3)CC2)cnn1C(F)F`, the “% Inhibition” value was 8%. Same read-out and setting: the result for `COc1ccsc1CNc1ccc2[nH]ncc2c1` reads 10%; that for `Cc1ccccc1Nc1c(-c2c[nH]c3ccccc23)nc2ncccn12`, -4%; that for `CC1CN(CCCNC(=O)Cc2c[nH]c3ccc(F)cc23)CC(C)O1` (stereo not given), -4%. Same read-out and setting: the result for `CCc1c([C@H](C)S(=O)(=O)c2ccccc2)[nH]c(=O)n1C(C)(C)C` reads -14%; that for `O=C(c1nccnc1-c1nc2ccccc2s1)N1CCc2sccc2C1`, -12%. The same measure, in the same setting: the result for `CCOCc1nc(-c2ccc(=O)n(C)c2)no1` reads 8%; that for `Cc1ccc(CNC(=O)[C@@H](C)C2CCOCC2)cc1C`, 7%; that for `CN([C@H]1CCc2nn(CC3CC3)c(=O)n2CC1)S(=O)(=O)c1ccccc1C(F)(F)F`, 1%. As for `CN(CC(F)(F)F)C(=O)CNC(=O)c1cc(F)cc(Cl)c1O`, the “% Inhibition” value was -2%. Still for that read-out and setting: the result for `Cc1cccc(NC(=O)c2c(C)sc3ncnc(N4CCCCC4)c23)c1C` reads 11%; that for `CS(=O)(=O)N(CCCC(=O)N1CC(=O)Nc2ccccc21)c1cc(Cl)ccc1Cl`, 10%; that for `COc1ccc2[nH]c3c(c2c1)CC(C(=O)O)NC3c1ccc(OC)c(CN2CCN(c3ccccc3F)CC2)c1` (stereo not given), 72%. The same measure, in the same setting: the result for `COc1cc(Cl)c(C)cc1NC(=O)c1cc(=O)n(-c2ccc(C)cc2)[nH]1` reads -14%. On the same count and under the same terms, as for `COc1cc(C=C(C(=O)Nc2ccccc2F)C(=O)Nc2ccccc2F)ccc1OCC(=O)Nc1cccc(C(F)(F)F)c1`, the figure is -18%; as for `C=CCC(N)(CC=C)c1ccc(C)cc1`, 4%.

Regarding `Cc1noc2c1N=C(c1ccc(F)cc1)C[C@@H](c1ccc(F)cc1)C2`, the “% Inhibition” value came to 1%.

Turning to `COCc1cc(F)ccc1NC(=O)NC1CCN(c2cc(C)nc(C)n2)CC1`, the “% Inhibition” value came to 5%. On to `Cn1ncnc1CNc1cccc(Cl)c1Br`, for which the “% Inhibition” value is recorded as 10%.

Take `CCOC(=O)c1cnc(N2CCCC2)nc1C1CCN(C(=O)OC(C)(C)C)CC1`: the “% Inhibition” value is -9%. For the compound `Cc1ccn2c(CN3CCN([C@H]4CCN(Cc5ccccc5)C4)CC3)c(C)nc2c1`, the “% Inhibition” value is 9%. Turning to `O=C(Nc1ccccc1)N1CCC[C@H]1c1ccncc1`, the “% Inhibition” value is listed as -4%.

With `O=C(Nc1ccccc1N1CCOCC1)[C@@H]1CC=CCC1`, the “% Inhibition” value is listed as -10%. On the same count and under the same terms, the result for `CS(=O)(=O)N1CC[C@H](CC(=O)N2CCN(c3ccc(F)cc3)CC2)C1` reads -21%; that for `COc1ccc(C(C)(C)C(=O)N(C)Cc2cn(C)nc2C(C)C)cc1`, 13%. Turning to `COc1cccc(-c2nc(C)c(C(=O)Nc3n[nH]c(CC(C)C)n3)s2)c1`, the “% Inhibition” value (2 µM) was -15% and 3%. For `O=C(NC1=NN2C(=NC(c3ccc(Cl)cc3)=C[C@H]2c2ccc(F)cc2)N1)c1ccc(Cl)cc1`, the “% Inhibition” value was determined as 13%. On the same count and under the same terms, the result for `Cc1cc(Cn2cc(C(c3ccccc3)c3ccccc3)nn2)no1` reads 7%; that for `N#Cc1ccc2c(c1)N(Cc1ccccc1F)C(=O)[C@@H]1CCCN21`, 7%; that for `Cc1cc(NCc2noc(-c3ccsc3)n2)ccc1C(N)=O`, 5%. The same measure, in the same setting: as for `COc1ccc2ncc(=O)n(CCOc3ccccc3)c2c1`, the figure is 9%. Same read-out and setting: the result for `CCN(CC)CCCNC(=O)c1ccc(-c2nc(CS(=O)(=O)c3ccccc3)c(C)o2)cc1` reads -11%; that for `c1cc(Cn2cnc3c2CCCC3)cs1`, -6%; that for `CCOc1cccc(COC(=O)c2cc(C#N)cn2C)n1`, 1%. In the case of `Nc1nc(N2CCN(c3ccc(F)c(Cl)c3)CC2)cc([C@H]2C[C@@H](N)C2)n1`, the “% Inhibition” value was determined as 34%.

Regarding `CC1(C)Cc2nc3ccccc3c(NCc3ccccc3)c2[C@@H](O)C1`, the “% Inhibition” value was found to be 54%. On the same count and under the same terms, the result for `CCC1(CC)CN(C(=O)c2ccn(C)c(=O)c2)c2ccccc21` reads 13%.

With `Cc1ccc([C@H](c2c[nH]c3ccccc23)N(C)C(=O)C(C)C)cc1`, the “% Inhibition” value turned out to be 0%. On the same count and under the same terms, the result for `CNc1nc(Nc2ccc3c(c2)OCCO3)nc2ccccc12` reads 103%; that for `COCCCNC(=O)C1CCN(c2c(C)n(-c3ccccc3)c(=O)n(CC(C)C)c2=O)CC1`, 5%.

For the compound `Cc1cccnc1NC(=O)OC(C)(C)C`, the “% Inhibition” value was found to be 10%. Still for that read-out and setting: the result for `CC(Oc1ccccc1)C(=O)N1CCNC(=O)C1c1ccc(Br)cc1` (stereo not given) reads -3%. `C1CCC(Nc2nc3nonc3nc2N2CCCCC2)CC1`: the “% Inhibition” value is reported as 15%. On the same count and under the same terms, the result for `COc1cccc(-n2c(C)cc(C(=O)N3CCNC(=O)CC3)c2C)c1` reads -5%; that for `O=C1[C@@H]2C[C@@H](CN2C(=O)c2cncnc2)Oc2ccccc2N1Cc1cccnc1`, 6%. Still for that read-out and setting: the result for `CC1CCCC(C)C12NC(=O)N(CN1CCN(CCOc3ccccc3Cl)CC1)C2=O` (stereo not given) reads 5%. Still for that read-out and setting: the result for `CCOC(=O)[C@@H](OC(=O)Nc1cccc(C(F)(F)F)c1)C(F)(F)F` reads 3%. As for `O[C@@]1(CN2CCC(COc3ccc4c(c3)CCC4)CC2)CCCNC1`, the “% Inhibition” value is recorded as 45%. Regarding `Cn1ncc(Cl)c1C(=O)N(C1CCCCC1)C1CCCCC1`, the “% Inhibition” value was 10%. Turning to `Cc1nn(C[C@H](C)/C(N)=N/O)cc1Cl`, the “% Inhibition” value came to 7%. Same read-out and setting: the result for `O=C(NCCc1cccs1)c1nn[nH]c1Nc1ccccc1F` reads 4%; that for `CCCCC(C)C(=O)N1CCC2CN(C(=O)C(F)(F)F)CC2C1` (stereo not given), 8%; that for `c1ccc(-c2nccc(-c3ccc(-n4cncn4)cc3)n2)nc1`, 18%. Still for that read-out and setting: the result for `Cc1nn(-c2nc3ccccc3[nH]2)c(O)c1Cc1ccccc1` reads 17%; that for `O=C(CCc1ccccc1)Nc1ccc(-n2nn[nH]c2=O)cc1`, 15%. Same read-out and setting: as for `CN(Cc1cnn(-c2ccccc2)n1)c1ncnc2[nH]ncc12`, the figure is 10%.

Consider `CCOC(=O)Nc1nc(C)c(-c2nc3ccccc3c(=O)n2-c2ccc(OC)cc2)s1`, for which the “% Inhibition” value came to 9%. The same measure, in the same setting: as for `Clc1cc(CNCCc2ccccc2)ccc1OCc1ccccc1`, the figure is 3%; as for `C[C@H](Nc1nc(N2CCCCC2)nc2ccccc12)c1ccccc1`, -6%; as for `CCC(CC)c1ccc([C@H]2N(C(=O)c3ccc(C)cc3)CCN2S(=O)(=O)c2ccccc2)cc1`, -2%. With `CC(C)(C)OC(=O)Cn1cc(CO)nn1`, the “% Inhibition” value is on record as 10%. The same measure, in the same setting: as for `CN(C)CCCNc1nc(N2CCCC2)c2c(c1C#N)CCN(C)C2`, the figure is 14%; as for `COc1cc2c(cc1Cl)-n1cccc1C1(CCNCC1)N2`, -15%. On the same count and under the same terms, the result for `CCCOc1ccc(Cl)c(CN2OCC(C)(C)C2=O)c1` reads -16%.
